# Data reported in the supplement of paper PMC12217912.
# This is one part of the list. The full chains were built here from the parent and the listed change. Inactive controls read about 0.05.
# B1: TEV protease; numbered along this chain (parent)
# chain: MGESLFKGPRDYNPISSSICHLTNESDGHTTSLYGIGFGPFIITNKHLFRRNNGTLVVQSLHGVFKVKDTTTLQQHLVDGRDMIIIRMPKDFPPFPQKLKFREPQREERICLVTTNFQTKSMSSMVSDTSCTFPSGDGIFWKHWIQTKDGQCGSPLVSTRDGFIVGIHSASNFTNTNNYFTSVPKNFMELLTNQEAQQWVSGWRLNADSVLWGGHKVFMVKPEEPFQPVKEATQL
# Variants of: B1
# Experiment: raw area under fraction-flipped curve 0-4 h after induction (AUC4h, not background-subtracted), DNA-recorder readout of cleavage of the substrate (dimensionless); higher = more cleavage of the substrate by the protease variant
# Conditions: temperature: 34 °C; time window: 0-4 h after rhamnose induction
# 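Also: Bxb1 expression induced with 0.2% (w/v) L-rhamnose at OD600 near 0.5, cultures sampled hourly, flipped fraction per protease–substrate barcode pair counted by paired-end Illumina sequencing.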
variant,measurement,value
L235W,area with substrate ENLYDQS,0.0354
same,area with substrate ENLYEQS,0.0883
same,area with substrate ENLYGQS,0.0678
same,area with substrate ENLYHQS,0.0715
same,area with substrate ENLYKQS,0.0841
same,area with substrate ENLYNQS,0.073
same,area with substrate ENLYPQS,0.0818
same,area with substrate ENLYRQS,0.0517
same,area with substrate ENLYSQS,0.0607
same,area with substrate ENLYVQS,0.106
L235D,area with substrate ENLYDQS,0.0704
same,area with substrate ENLYIQS,0.14
same,area with substrate ENLYNQS,0.046
same,area with substrate ENLYWQS,0.0976
I85E,area with substrate ENLYEQS,0.0451
same,area with substrate ENLYHQS,0.0414
same,area with substrate ENLYIQS,0.0585
same,area with substrate ENLYKQS,0.0547
same,area with substrate ENLYMQS,0.0555
same,area with substrate ENLYPQS,0.0507
same,area with substrate ENLYQQS,0.0412
same,area with substrate ENLYRQS,0.0416
same,area with substrate ENLYVQS,0.0478
same,area with substrate ENLYYQS,0.0452
P89D,area with substrate ENLYEQS,0.0584
P89G,area with substrate ENLYEQS,0.0715
same,area with substrate ENLYGQS,0.0646
same,area with substrate ENLYHQS,0.0719
same,area with substrate ENLYKQS,0.0301
same,area with substrate ENLYRQS,0.05
same,area with substrate ENLYSQS,0.076
same,area with substrate ENLYTQS,0.0789
same,area with substrate ENLYVQS,0.115
same,area with substrate ENLYWQS,0.0729
same,area with substrate ENLYYQS,0.056
Q75L,area with substrate ENLYEQS,0.0727
same,area with substrate ENLYGQS,0.0816
Q75S,area with substrate ENLYEQS,0.0613
same,area with substrate ENLYGQS,0.0734
same,area with substrate ENLYHQS,0.0752
same,area with substrate ENLYKQS,0.0635
same,area with substrate ENLYLQS,0.0804
same,area with substrate ENLYMQS,0.0676
same,area with substrate ENLYNQS,0.0575
same,area with substrate ENLYPQS,0.0649
same,area with substrate ENLYQQS,0.0577
same,area with substrate ENLYRQS,0.0575
same,area with substrate ENLYSQS,0.0657
same,area with substrate ENLYTQS,0.0598
same,area with substrate ENLYVQS,0.0858
same,area with substrate ENLYYQS,0.053
N206W,area with substrate ENLYDQS,0.0722
same,area with substrate ENLYEQS,0.0649
same,area with substrate ENLYGQS,0.0603
same,area with substrate ENLYHQS,0.0547
same,area with substrate ENLYIQS,0.0844
same,area with substrate ENLYKQS,0.0462
same,area with substrate ENLYMQS,0.0701
same,area with substrate ENLYNQS,0.055
same,area with substrate ENLYPQS,0.0661
same,area with substrate ENLYQQS,0.0523
same,area with substrate ENLYRQS,0.0758
same,area with substrate ENLYSQS,0.06
same,area with substrate ENLYTQS,0.0907
same,area with substrate ENLYVQS,0.0604
same,area with substrate ENLYWQS,0.0665
L5I,area with substrate ENLYEQS,0.0953
same,area with substrate ENLYLQS,0.0975
same,area with substrate ENLYNQS,0.0769
same,area with substrate ENLYPQS,0.069
R109M,area with substrate ENLYEQS,0.0552
same,area with substrate ENLYGQS,0.0673
same,area with substrate ENLYHQS,0.0709
same,area with substrate ENLYMQS,0.08
same,area with substrate ENLYSQS,0.0619
T174M,area with substrate ENLYEQS,0.0728
same,area with substrate ENLYGQS,0.063
same,area with substrate ENLYHQS,0.0659
same,area with substrate ENLYMQS,0.0843
same,area with substrate ENLYNQS,0.095
same,area with substrate ENLYPQS,0.0748
same,area with substrate ENLYQQS,0.0675
same,area with substrate ENLYRQS,0.0635
same,area with substrate ENLYVQS,0.0513
same,area with substrate ENLYYQS,0.0738
H215Y,area with substrate ENLYDQS,0.0625
same,area with substrate ENLYEQS,0.0721
same,area with substrate ENLYGQS,0.0585
same,area with substrate ENLYIQS,0.0679
same,area with substrate ENLYMQS,0.0717
same,area with substrate ENLYNQS,0.0648
same,area with substrate ENLYQQS,0.0612
same,area with substrate ENLYTQS,0.0506
same,area with substrate ENLYWQS,0.0658
I167Q,area with substrate ENLYEQS,0.0558
same,area with substrate ENLYGQS,0.0517
same,area with substrate ENLYHQS,0.0474
same,area with substrate ENLYKQS,0.0942
same,area with substrate ENLYLQS,0.129
same,area with substrate ENLYMQS,0.0674
same,area with substrate ENLYSQS,0.0659
same,area with substrate ENLYVQS,0.0937
same,area with substrate ENLYWQS,0.063
D69A,area with substrate ENLYEQS,0.0661
same,area with substrate ENLYGQS,0.0412
same,area with substrate ENLYIQS,0.0667
same,area with substrate ENLYKQS,0.0564
same,area with substrate ENLYMQS,0.0633
same,area with substrate ENLYNQS,0.0612
same,area with substrate ENLYPQS,0.0691
S201T,area with substrate ENLYDQS,0.0539
same,area with substrate ENLYEQS,0.077
same,area with substrate ENLYGQS,0.0726
same,area with substrate ENLYKQS,0.0924
same,area with substrate ENLYPQS,0.0791
same,area with substrate ENLYQQS,0.0853
same,area with substrate ENLYRQS,0.0605
same,area with substrate ENLYSQS,0.0869
same,area with substrate ENLYWQS,0.0574
W203F,area with substrate ENLYDQS,0.0707
same,area with substrate ENLYEQS,0.0734
same,area with substrate ENLYGQS,0.0789
same,area with substrate ENLYPQS,0.0793
same,area with substrate ENLYSQS,0.078
same,area with substrate ENLYWQS,0.0655
E107T,area with substrate ENLYEQS,0.0774
same,area with substrate ENLYGQS,0.0716
same,area with substrate ENLYHQS,0.051
same,area with substrate ENLYIQS,0.162
same,area with substrate ENLYKQS,0.0538
same,area with substrate ENLYMQS,0.116
same,area with substrate ENLYPQS,0.0632
same,area with substrate ENLYRQS,0.0929
same,area with substrate ENLYTQS,0.0794
same,area with substrate ENLYWQS,0.0577
I145S,area with substrate ENLYEQS,0.0745
same,area with substrate ENLYGQS,0.0497
same,area with substrate ENLYHQS,0.0741
same,area with substrate ENLYIQS,0.13
same,area with substrate ENLYKQS,0.03
same,area with substrate ENLYMQS,0.148
same,area with substrate ENLYNQS,0.0694
same,area with substrate ENLYPQS,0.102
same,area with substrate ENLYQQS,0.0607
same,area with substrate ENLYRQS,0.0547
same,area with substrate ENLYVQS,0.196
same,area with substrate ENLYWQS,0.0944
I145A,area with substrate ENLYEQS,0.0642
same,area with substrate ENLYHQS,0.0608
same,area with substrate ENLYKQS,0.081
same,area with substrate ENLYNQS,0.0641
same,area with substrate ENLYQQS,0.0603
same,area with substrate ENLYRQS,0.0609
same,area with substrate ENLYSQS,0.0876
same,area with substrate ENLYVQS,0.19
same,area with substrate ENLYYQS,0.0809
E3K,area with substrate ENLYEQS,0.0539
same,area with substrate ENLYHQS,0.079
same,area with substrate ENLYIQS,0.122
same,area with substrate ENLYMQS,0.094
same,area with substrate ENLYNQS,0.065
same,area with substrate ENLYPQS,0.0745
same,area with substrate ENLYRQS,0.0575
same,area with substrate ENLYSQS,0.0872
same,area with substrate ENLYWQS,0.107
same,area with substrate ENLYYQS,0.0582
